# This is one part of the list. The full chains were built here from the parent and the listed change. Values near 0.05 are background.
# B1: TEV protease; numbered along this chain (parent)
# chain: MGESLFKGPRDYNPISSSICHLTNESDGHTTSLYGIGFGPFIITNKHLFRRNNGTLVVQSLHGVFKVKDTTTLQQHLVDGRDMIIIRMPKDFPPFPQKLKFREPQREERICLVTTNFQTKSMSSMVSDTSCTFPSGDGIFWKHWIQTKDGQCGSPLVSTRDGFIVGIHSASNFTNTNNYFTSVPKNFMELLTNQEAQQWVSGWRLNADSVLWGGHKVFMVKPEEPFQPVKEATQL
# Variants of: B1
# Assay: raw area under fraction-flipped curve 0-4 h after induction (AUC4h, not background-subtracted), DNA-recorder readout of cleavage of the substrate (dimensionless); higher = more cleavage of the substrate by the protease variant
# Details: temperature: 34 °C; time window: 0-4 h after rhamnose induction
# Method: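 In vivo DNA recorder in E. coli TOP10(DE3) ΔrhaA at 34 °C. Each TEVp single-site mutant (parent TEVp 0) is paired with a single-site variant of the 7-mer TEVs (canonical ENLYFQ|S). The substrate sits between flexible linkers in a Bxb1-sfGFP-TEVs-SsrA fusion, so cleavage stabilises Bxb1 and speeds flipping of a recombination array, read by NGS. The value is the raw area under the fraction-flipped curve over 0-4 h after rhamnose induction (AUC4h), with ≥20 reads per time point. It is not background-subtracted; inactive controls average about 0.047.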
# 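Further: Bxb1 expression induced with 0.2% (w/v) L-rhamnose at OD600 near 0.5, cultures sampled hourly, flipped fraction per protease–substrate barcode pair counted by paired-end Illumina sequencing.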
Variant,area with substrate ENLYAQS,area with substrate ENLYDQS,area with substrate ENLYEQS,area with substrate ENLYGQS,area with substrate ENLYHQS,area with substrate ENLYIQS,area with substrate ENLYKQS,area with substrate ENLYMQS,area with substrate ENLYNQS,area with substrate ENLYPQS,area with substrate ENLYRQS,area with substrate ENLYSQS,area with substrate ENLYTQS,area with substrate ENLYVQS,area with substrate ENLYWQS,area with substrate ENLYYQS,area with substrate ENLYQQS,area with substrate ENLYCQS,area with substrate ENLYLQS
MGESLFKGPRDYNPISSSICHLTNESDGHTTSLYGIGFGPFIITNKHLFRRNNGTLVVQSLHGVFKVKDTTTLQQHLVDGRDMIIIRMPKDFPPFPQKLKFREPQREERICLVTTNFQTKSMSSMVSDTSCTFPSGDGIFWKHWIQTKDGQCGSPLVSTRDGFIVGIHSASNFTNTNNYFTSVPKNFMELLTNQEAQQWVSGWRLNADSVLWGGHKVFDVKPEEPFQPVKEATQL [M219D],0.0668,0.061,0.0597,0.0633,0.0657,0.0659,0.0464,0.0742,0.0725,0.0464,0.0744,0.0604,0.0676,0.053,0.0843,0.0665,–,–,–
MGESLFKGPRDYNPISSSICHLTNESDGHTTSLYGIGFGPFIITNKHLFRRNNGTLVVQSLHGVFKVKDTTTLQQHLVDGRDMIIIRMPKDFPPFPQKLKFREPQREERICLVTTNFQTKSMSSMVSDTSCTFPSGDGIFWKHWIQTKDGQCGSPLVSTRDGFIVGIHSASNFTNTNNYFTSVPKNFMELLTNQEAQQWVSGWRLNADSVLWGGHKVFQVKPEEPFQPVKEATQL [M219Q],0.0555,0.0627,0.0716,0.0814,0.066,–,0.0668,0.0887,0.0673,0.0544,0.0634,0.0361,0.0698,0.0811,0.0716,0.0716,0.0748,–,–
MGESLFKGPRDYNPISSSICHLTNESDGHTTSLYGIGFGPFIITNKHLFRRNNGTLVVQSLHGVFKVKDTTTLQQHLVDGRDMIIIRMPKDFPPFPQKLKFREPQREERICLVTTNFQTKSMSSMVSDTSCTFPSGDGIFWKHWIQTKDGQCGSPLVSTRDGFIVGIHSASNFTNTNNYFTSVPKNFMELLTNQEAQQWVSGWRLNADSVLWGGHKVFRVKPEEPFQPVKEATQL [M219R],0.061,0.047,0.067,0.0548,0.0531,0.0543,0.0615,0.073,0.0623,0.0625,0.0443,0.0541,–,0.0502,0.0654,0.0419,0.0619,0.0622,0.0621
MGESLFKGPRDYNPISSSICHLTNESDGHTTSLYGIGFGPFIITNKHLFRRNNGTLVVQSLHGVFKVKDTTTLQQHLVDGRDMIIIRMPKDFPPFPQKLKFREPQREERICLVTTNFQTKSMSSMVSDTSCTFPSGDGIFWKHWIQTKDGQCGSPLVSTRDGFIVGIHSASNFTNTNNYFTSVPKNFMELLTNQEAQQWVSGWRLNADSVLWGGHKVFMVNPEEPFQPVKEATQL [K221N],0.0929,0.0578,0.0615,0.063,0.0561,0.104,0.0464,0.0914,0.0449,0.065,0.0653,0.0382,–,0.117,0.0524,–,0.0462,0.0665,–
MGESLFKGPRDYNPISSSICHLTNESDGHTTSLYGIGFGPFIITNKHLFRRNNGTLVVQSLHGVFKVKDTTTLQQHLVDGRDMIIIRMPKDFPPFPQKLKFREPQREERICLVTTNFQTKSMSSMVSDTSCTFPSGDGIFWKHWIQTKDGQCGSPLVSTRDGFIVGIHSASNFTNTNNYFTSVPKNFMELLTNQEAQQWVSGWRLNADSVLWGGHKVFMVTPEEPFQPVKEATQL [K221T],0.0241,0.0476,0.0677,0.0629,–,0.0625,0.0587,0.0638,0.0595,0.0625,–,0.0847,–,0.104,0.0583,0.0672,0.0775,–,–
MGESLFKGPRDYNPISSSICHLTNESDGHTTSLYGIGFGPFIITNKHLFRRNNGTLVVQSLHGVFKVKDTTTLQQHLVDGRDMIIIRMPKDFPPFPQKLKFREPQREERICLVTTNFQTKSMSSMVSDTSCTFPSGDGIFWKHWIQTKDGQCGSPLVSTRDGFIVGIHSASNFTNTNNYFTSVPKNFMELLTNQEAQQWVSGWRLNADSVLWGGHKVFMVKPFEPFQPVKEATQL [E223F],0.0665,0.066,0.0549,–,0.059,–,0.0618,0.0678,0.0545,0.0687,–,0.0502,–,–,0.0681,0.0675,–,–,–
MGESLFKGPRDYNPISSSICHLTNESDGHTTSLYGIGFGPFIITNKHLFRRNNGTLVVQSLHGVFKVKDTTTLQQHLVDGRDMIIIRMPKDFPPFPQKLKFREPQREERICLVTTNFQTKSMSSMVSDTSCTFPSGDGIFWKHWIQTKDGQCGSPLVSTRDGFIVGIHSASNFTNTNNYFTSVPKNFMELLTNQEAQQWVSGWRLNADSVLWGGHKVFMVKPEMPFQPVKEATQL [E224M],0.0713,0.0665,0.0614,–,0.0596,0.106,0.0748,0.0764,0.0542,0.0613,0.0569,–,0.0726,0.125,0.0685,–,0.0539,0.0786,–
MGESLFKGPRDYNPISSSICHLTNESDGHTTSLYGIGFGPFIITNKHLFRRNNGTLVVQSLHGVFKVKDTTTLQQHLVDGRDMIIIRMPKDFPPFPQKLKFREPQREERICLVTTNFQTKSMSSMVSDTSCTFPSGDGIFWKHWIQTKDGQCGSPLVSTRDGFIVGIHSASNFTNTNNYFTSVPKNFMELLTNQEAQQWVSGWRLNADSVLWGGHKVFMVKPEPPFQPVKEATQL [E224P],0.0822,0.0498,0.0812,0.0653,0.0839,0.123,0.0512,–,0.0654,0.0782,0.059,0.071,0.0735,0.105,0.0542,–,0.0548,–,–

# From the supplement of paper PMC12217912
